In the RNAGym collection of RNA variant scans (doi:10.7554/elife.90254):
The source gives no read counts; variants with many changes may rest on few reads.

B1: LINE1-mini (parent)
chain: GGCAGAGCUCAACACAGCGUGGCAAAGUGGCUGUGGCUAGACUGCC

Variants of: B1
Experiment: self-cleavage, relative activity (ratio to wild type); higher = more cleavage; in vitro, sequencing; the parent is a self-cleaving ribozyme

Row | Variant | self-cleavage
1 | GGCAGAGCUCAACACAGUGCGGCAAAGUGGCUGUGUCUAGACUGCG [C18U U20C G36U C46G] | 0.07
2 | GGCAGAGCUCAACACAGUGUGACAAAGUGGCUGUCGCUGGACUGCC [C18U G22A G35C A39G] | 0.01
3 | GGCAGAGCUCAACACAGUGAGGCAAAGUUGCCGUGGCUAGACUGCC [C18U U20A G29U U32C] | 0.05
4 | GGCAGAGCUCAACACAGUGCGGCAAAGUGGAUGUGGCUAGACUGAC [C18U U20C C31A C45A] | 0.03
5 | GGCAGAGCUCAACACAGCAUGGCAAAGUGGCUGUGGCUAGGCUGUC [G19A A41G C45U] | 0.36
6 | GGCAGAGCUCAACACAGUGUGGCAAAGUGUCUGUAGCUAGACUGCC [C18U G30U G35A] | 0.05
7 | GGCAGAGCUCAACACAGUGUGCCUAAGUGGCUGUAGCUAGACUGCC [C18U G22C A24U G35A] | 0.11
8 | GGCAGAGCUCAACACAGUGUGGCAAAGUGGCUGUGGCUAUACUGCA [C18U G40U C46A] | 0.01
9 | GGCAGAGCUCAACACAGCAUGGCAAAGUGGCUGUGGAGUGACUGCC [G19A C37A U38G A39U] | 0.04
10 | GGCAGAGCUCAACACAGUGCGGCAAAGUGGCUGUGGCUAGAAUGCC [C18U U20C C42A] | 0.04
11 | GGCAGAGCUCAACACAGCAUGGCAAAGUGGUUGUGGCGAGACUGCC [G19A C31U U38G] | 0.03
12 | GGCAGAGCUCAACACAGUGUGGCAAAGUGGCUGCGGCUAUACUGCC [C18U U34C G40U] | 0.03
13 | GGCAGAGCUCAACACAGCAUGGUAAAGAGGCUGUGGCUAGACUGCC [G19A C23U U28A] | 0.73
14 | GGCAGAGCUCAACACAGCAUGGUAAAGUGGCUGUGGCUUGACUGCC [G19A C23U A39U] | 0.8
15 | GGCAGAGCUCAACACAGUGUGGCAAAGUGGCUGUGGCUAGACUUCG [C18U G44U C46G] | 0.03
16 | GGCAGAGCUCAACACAGUGUGACCAAGUGGCUGUGUCUAGACUGCG [C18U G22A A24C G36U C46G] | 0.05
17 | GGCAGAGCUCAACACAGUGAGACAAAGUGGCUGUGGCUAGACAGCC [C18U U20A G22A U43A] | 0.06
18 | GGCAGAGCUCAACACAGUGUGGCAAAGUGGCCGUGGCUAAACUGCC [C18U U32C G40A] | 0.04
19 | GGCAGAGCUCAACACAGCAUGGCGACGUGGCUGUGGCUAGACUGCC [G19A A24G A26C] | 0.29

Row | Variant | self-cleavage
20 | GGCAGAGCUCAACACAGUGUGCCAUAGUGGCUGUGGCUAGACUGCC [C18U G22C A25U] | 2.02
21 | GGCAGAGCUCAACACAGUGUGGCAAAGUGGCUGGGGAUAGACUGCC [C18U U34G C37A] | 0.04
22 | GGCAGAGCUCAACACAGUGUGGCAAAUUGGCUCCGGCUAAACUGCC [C18U G27U G33C U34C G40A] | 0.04
23 | GGCAGAGCUCAACACAGCAUGGCAUAGAGGCUGUGGCUAGACUGCC [G19A A25U U28A] | 0.36
24 | GGCAGAGCUCAACACAGCAUGGCACAAUGGCUGUGGCUUGACUGUC [G19A A25C G27A A39U C45U] | 1.01
25 | GGCAGAGCUCAACACAGCAUGGCACAGUGGCUGUGGCUAGCCUGCC [G19A A25C A41C] | 0.04
26 | GGCAGAGCUCAACACAGCAUGGAAAAGAUGCUGUGGCUAGACUGCC [G19A C23A U28A G29U] | 0.3
27 | GGCAGAGCUCAACACAGUGUGGCAAAGCUGCUGUGGAUAGACUGCC [C18U U28C G29U C37A] | 0.09
28 | GGCAGAGCUCAACACAGUGUGGCAAAGUGGCUGUGGCUAAACUGGC [C18U G40A C45G] | 0.06
29 | GGCAGAGCUCAACACAGUGUGUCAAAGUGGCGGUGGCUAGACUGCU [C18U G22U U32G C46U] | 0.33
30 | GGCAGAGCUCAACACAGUGUGGCAAAGUUGCUCUGGCUAAACUGCC [C18U G29U G33C G40A] | 0.01
31 | GGCAGAGCUCAACACAGCAUGGCAAGGAGGCUGUGGUUAGACUGCC [G19A A26G U28A C37U] | 0.03
32 | GGCAGAGCUCAACACAGUGUGGCAAAAUGGCUGUUGCUAGACUGCC [C18U G27A G35U] | 0.04
33 | GGCAGAGCUCAACACAGUGCGGCAAAGUGGGUGUGGCUAGACUGCC [C18U U20C C31G] | 0.07
34 | GGCAGAGCUCAACACAGUGUGGCAAAGUGGCUGUAGCUAGACUGCG [C18U G35A C46G] | 0.02
35 | GGCAGAGCUCAACACAGCAUGGCACAGUGGCUUUGGCUAGACUGCC [G19A A25C G33U] | 0.09
36 | GGCAGAGCUCAACACAGUGUGGCAAAGUGGCACUGGCUAGACUGCC [C18U U32A G33C] | 0.04
37 | GGCAGAGCUCAACACAGUGAGGGAAAGUGGCUGUGUCUAGACUCCC [C18U U20A C23G G36U G44C] | 0.02
38 | GGCAGAGCUCAACACAGCAUGGUAAAGUGGCUGUGGCUAGUCUGCC [G19A C23U A41U] | 0.82

Row | Variant | self-cleavage
39 | GGCAGAGCUCAACACAGUGAGGGAAAGUGUCUGUGGCUAGACUGCC [C18U U20A C23G G30U] | 0.58
40 | GGCAGAGCUCAACACAGCAUGGCAAAGUGGCUGUGGGUGGACUGCC [G19A C37G A39G] | 0
41 | GGCAGAGCUCAACACAGCAUGGCGAAUUGGCUGUGGCUAGACUGCC [G19A A24G G27U] | 1.19
42 | GGCAGAGCUCAACACAGUGGGGCAAAGUGUCUAUGGCUAGACUACC [C18U U20G G30U G33A G44A] | 0
43 | GGCAGAGCUCAACACAGUGUGGCAAAUUGGCUGUGUCUAGACUGAC [C18U G27U G36U C45A] | 0.23
44 | GGCAGAGCUCAACACAGUGUGGCAAAGUGGCAGUGGCUUGAAUGCC [C18U U32A A39U C42A] | 0.03
45 | GGCAGAGCUCAACACAGCAUGGCAAAGUGGCUGUGGAUAUACUGCC [G19A C37A G40U] | 0.09
46 | GGCAGAGCUCAACACAGUGUGGCAAAGGUGCGGUGGCUAGACUGCU [C18U U28G G29U U32G C46U] | 0.08
47 | GGCAGAGCUCAACACAGUGUGUCAUAGUGGCUGUGGCUAGACUGCC [C18U G22U A25U] | 0.21
48 | GGCAGAGCUCAACACAGCAUGGCAGAGCGGCUGUGGCUAGACUGCC [G19A A25G U28C] | 1.1
49 | GGCAGAGCUCAACACAGUGGGGCAAAGCUGUUUUGGCUAGACUGCC [C18U U20G U28C G29U C31U G33U] | 0.02
50 | GGCAGAGCUCAACACAGUGUGGCAAAGUGUCUGUCGCUACCCUGCC [C18U G30U G35C G40C A41C] | 0.06
51 | GGCAGAGCUCAACACAGUGUGCCAAAGUGGCUGUGGCUAGAAUGAC [C18U G22C C42A C45A] | 0.06
52 | GGCAGAGCUCAACACAGUGUGUCAAAGUGGCUGUGGCUUGACUGCA [C18U G22U A39U C46A] | 0.19
53 | GGCAGAGCUCAACACAGUGUGCCAAAGUGGCUGUGGCUAGACUGUC [C18U G22C C45U] | 1.4
54 | GGCAGAGCUCAACACAGCAUGGCAAAGUGGUUGUGGCUCGACUGCC [G19A C31U A39C] | 0.08
55 | GGCAGAGCUCAACACAGUGUGGCAAAGUGGCUGUGGCUAGACUACA [C18U G44A C46A] | 0.06
56 | GGCAGAGCUCAACACAGCAUGGCUUAGUGGCUGUGCCUAGACUGCC [G19A A24U A25U G36C] | 0.01
